The list shows a part of the results, in another mix than the full data. For some assays here: At the low end of the ranking, values are background and their order means little. Some of the results follow. For some assays here: The exact form of the protein is not confirmed.
Legend:
Assay in all cases: universal protein binding microarray (PBM)
Details in all cases: transcription factors of Arabidopsis thaliana; high values mean tight binding; most listed sequences are background and not binding sites; double strand, one strand shown
[1] = target: T1, GST-ANAC092(1-176) (UniProt Q9FKA0)
T1 sequence: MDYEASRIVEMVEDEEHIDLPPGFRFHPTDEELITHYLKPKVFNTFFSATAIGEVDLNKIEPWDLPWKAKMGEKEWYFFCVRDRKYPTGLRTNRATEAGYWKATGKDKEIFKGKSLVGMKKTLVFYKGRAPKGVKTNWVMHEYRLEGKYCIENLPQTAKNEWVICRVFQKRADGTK

[2] = target: GST-NTL6(1-168) (UniProt Q9SCK6)
[3] = target: T2, GST-ANAC019 NAC domain (UniProt Q9C932)
T2 sequence: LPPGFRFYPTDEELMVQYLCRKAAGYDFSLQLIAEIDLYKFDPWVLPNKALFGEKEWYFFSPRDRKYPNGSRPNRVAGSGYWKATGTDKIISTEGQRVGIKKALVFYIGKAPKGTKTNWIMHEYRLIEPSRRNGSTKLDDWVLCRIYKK

[4] = target: T3, GST-ATAF1 NAC domain (UniProt Q39013)
T3 sequence: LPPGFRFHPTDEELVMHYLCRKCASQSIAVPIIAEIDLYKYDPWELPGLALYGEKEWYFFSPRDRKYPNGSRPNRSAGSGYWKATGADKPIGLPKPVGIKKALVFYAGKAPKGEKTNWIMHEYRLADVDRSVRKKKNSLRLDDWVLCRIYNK

[5] = target: T4, GST-ANAC092(1-285) full length (UniProt Q9FKA0)
T4 sequence: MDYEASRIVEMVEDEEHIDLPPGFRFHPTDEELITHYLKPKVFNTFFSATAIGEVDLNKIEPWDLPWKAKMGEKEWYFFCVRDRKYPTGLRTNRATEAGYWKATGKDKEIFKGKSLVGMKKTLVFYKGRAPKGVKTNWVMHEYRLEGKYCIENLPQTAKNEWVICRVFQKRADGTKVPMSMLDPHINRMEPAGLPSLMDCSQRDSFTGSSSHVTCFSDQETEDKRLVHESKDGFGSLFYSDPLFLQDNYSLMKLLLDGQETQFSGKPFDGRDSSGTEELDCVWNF

[6] = target: T5, GST-NAP(1-166) (UniProt O49255)
T5 sequence: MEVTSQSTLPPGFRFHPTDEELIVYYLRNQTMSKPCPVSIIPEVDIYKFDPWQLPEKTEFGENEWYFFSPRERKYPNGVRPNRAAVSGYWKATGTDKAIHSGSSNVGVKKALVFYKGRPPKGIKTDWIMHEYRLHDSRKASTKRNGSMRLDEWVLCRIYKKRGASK

[7] = target: T6, GST-NST2(1-184) (UniProt Q9M274)
T6 sequence: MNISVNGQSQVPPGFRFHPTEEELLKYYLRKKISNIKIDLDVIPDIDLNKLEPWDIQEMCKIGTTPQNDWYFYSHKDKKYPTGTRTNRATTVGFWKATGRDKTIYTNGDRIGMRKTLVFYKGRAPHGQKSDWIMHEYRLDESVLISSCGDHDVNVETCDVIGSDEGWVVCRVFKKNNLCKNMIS

[8] = target: T7, GST-SND1(1-203) (UniProt Q9LPI7)
T7 sequence: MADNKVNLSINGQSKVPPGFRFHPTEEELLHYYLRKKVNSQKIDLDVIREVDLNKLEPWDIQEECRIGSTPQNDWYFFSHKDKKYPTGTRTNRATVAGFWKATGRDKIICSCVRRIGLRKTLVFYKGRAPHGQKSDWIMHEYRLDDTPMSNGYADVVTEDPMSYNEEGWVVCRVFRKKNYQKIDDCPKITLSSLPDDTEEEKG

[9] = target: T8, GST-VOZ2 (Arabidopsis thaliana) (UniProt Q9SLB9)
T8 sequence: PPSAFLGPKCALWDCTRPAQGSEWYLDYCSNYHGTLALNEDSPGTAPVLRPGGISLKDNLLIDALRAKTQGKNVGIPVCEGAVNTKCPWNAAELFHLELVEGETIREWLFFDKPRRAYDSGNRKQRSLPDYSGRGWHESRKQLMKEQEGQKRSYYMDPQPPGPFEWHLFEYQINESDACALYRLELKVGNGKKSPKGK

[10] = target: GST-WRKY1(266-371) (UniProt Q9SI37)
[11] = target: T9, GST-NTL8 NAC domain (UniProt Q9XIN7)
T9 sequence: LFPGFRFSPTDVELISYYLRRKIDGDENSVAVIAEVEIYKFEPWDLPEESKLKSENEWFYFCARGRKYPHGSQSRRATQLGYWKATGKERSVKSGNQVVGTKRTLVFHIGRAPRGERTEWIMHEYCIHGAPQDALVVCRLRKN

[12] = target: T10, GST-ANAC055(1-171) (UniProt Q9LDY8)
T10 sequence: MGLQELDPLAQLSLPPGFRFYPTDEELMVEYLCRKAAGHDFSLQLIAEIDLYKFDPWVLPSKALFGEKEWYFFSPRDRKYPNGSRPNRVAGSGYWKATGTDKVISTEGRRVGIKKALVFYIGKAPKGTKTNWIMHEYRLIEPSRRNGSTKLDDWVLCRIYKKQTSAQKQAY

Sequence	binding signal [1] [E-score]	binding signal [2] [E-score]	binding signal [3] [E-score]	binding signal [4] [E-score]	binding signal [5] [E-score]	binding signal [6] [E-score]	binding signal [7] [E-score]	binding signal [8] [E-score]	binding signal [9] [E-score]	binding signal [10] [E-score]	binding signal [11] [E-score]	binding signal [12] [E-score]
TACAGTCA	0.0408	0.00997	0.109	0.107	0.131	0.0375	0.0264	0.0402	0.0539	0.404	–	–
CGCACGCA	–	-0.0637	–	0.0589	–	0.291	–	0.229	-0.0926	-0.0337	-0.0173	–
ATTACTTA	–	0.49	0.0392	–	–	–	0.296	0.38	0.183	-0.0217	0.31	0.191
GTACGGCA	0.395	-0.0392	–	–	–	0.342	–	0.236	-0.0553	0.0953	0.0134	–
ATACGCTA	–	0.0936	0.000615	–	0.466	0.155	–	0.458	0.209	-0.0695	-0.104	–
TAAGTTAA	–	0.418	–	0.157	–	-0.025	–	0.297	0.00779	-0.177	0.0196	–
ACGTCACT	0.383	0.0658	0.365	–	–	0.354	–	0.314	0.0258	0.0284	-0.0642	–
CACGGAAG	–	0.0727	0.471	–	–	–	0.12	0.164	0.00631	0.0393	–	0.435

From paper PMC4081100
